One molecule from PubChem BioAssay (NCI) can be followed below.

This experiment concerns NCI-H322M lung. Put plainly: growth of human tumour cells (NCI), 48 h.

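Briefly, cells in 96-well plates were exposed to five compound concentrations for 48 h, and endpoints were estimated by linear interpolation. Abbreviation: GI50, concentration required for 50% inhibition of growth. TGI is the concentration that stops growth completely.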

Consider `NS(=O)(=O)c1ccc(NC(=O)CSc2ccc(-c3ccc(Cl)cc3)nn2)c(Br)c1`, for which the GI50 is 14.7 µM and the TGI is 79 µM.
